We go through 84 compounds from ChEMBL document CHEMBL4888484, “Replenishing the malaria drug discovery pipeline: Screening and hit evaluation of the MMV Hit Generation Library 1 (HGL1) against asexual blood stage Plasmodium falciparum ,using a nano luciferase reporter read-out” (2022).

Molecules are shown by their SMILES. Out of some 150,000 compounds screened, about 540 (0.36%) showed an effect of 50% or more. This is one part of the list.

The assay relates to Plasmodium falciparum. The experiment in a line: Primary screen in NF54 nanoGlo assay, in single point, at 2uM, 72h; a lower Z score goes with more inhibition. The assay is classed as functional, Erythrocyte. The note with it: timepoint 72 hour.
For `Cc1cccc(C(=O)NC2CCN(Cc3ccccc3)CC2)n1`, the “% Inhibition” value is reported as 3% and the Z score was -0.64.
The like results for `CCOc1cccn2cc(CCN3C(=O)c4ccccc4C3=O)nc12` were, in that order, -8% and 1.12.
As to `CCOC(=O)[C@H](Cc1ccncc1)NC(=O)Cc1ccc(Cl)cc1`, the “% Inhibition” value was -12% and the Z score is on record as 1.43.
On to `Cc1ccc2c(c1)CN(CCC(=O)NCc1cccc(F)c1F)C[C@H](C)O2`, for which the “% Inhibition” value is -13% and the Z score is reported as 1.63.
Regarding `O=C(COC(=O)c1cnn(CCO)c1-c1ccccc1)Nc1ccc(F)c(F)c1`, the “% Inhibition” value is -8% and the Z score is 1.09.
For the compound `CC[C@H]1CN(S(=O)(=O)c2ccccc2)CC[C@H]1CC(=O)NC1CC1`, the “% Inhibition” value is on record as -1% and the Z score amounted to 0.2.
In the case of `Cc1cnc(NC(=O)Cc2cccc3ccccc23)s1`, the “% Inhibition” value is recorded as -10% and the Z score came to 1.08.
For `CC1=CC(C2CC(=O)N(c3ccc(Cl)cc3)C2=O)CC2C(=O)N(c3ccc(Cl)cc3)C(=O)C12` (stereo not drawn), the “% Inhibition” value came out at 41% and the Z score is given as -5.28.
For `CC1CCN(C(=O)Cn2c(=O)n(-c3ccc(F)c(Cl)c3)c(=O)c3sccc32)CC1`, the “% Inhibition” value is recorded as -9% and the Z score worked out at 1.01.
With `CCn1ncnc1-c1nccn1Cc1ccc(C(F)(F)F)cc1`, the “% Inhibition” value is on record as -9% and the Z score was determined as 1.25.
As for `O=C(NCCNC(=O)c1ccco1)c1ccncc1`, the “% Inhibition” value is -38% and the Z score was found to be 4.47.
The like results for `CN(C)C(=O)c1ccc(Cl)cc1NCC[C@H]1CCCO1` were, in that order, -5% and 0.88.
The like results for `OCc1ccc(F)c(CN2CC[C@H](Nc3ncccn3)C2)c1` were, in that order, -15% and 2.96.
Turning to `Cc1sc(S(=O)(=O)N2CCCC2)cc1NC(=O)c1ccc(N(C)C)cc1`, the “% Inhibition” value came out at 3% and the Z score was -0.29.
The corresponding values for `CCCC(N)C(=O)NC1CCC(C)(C)CC1C` (stereo not drawn) are -8% and 1.18.
The like results for `COc1ccc(C(=O)N[C@@H]2CCC[C@@H]2C(=O)N2CCN(c3cc(C)ccc3C)CC2)cc1` were, in that order, -7% and 0.97.
The like results for `O=C(O)[C@@H]1CCCCN1C(=O)c1cccc2[nH]ccc12` were, in that order, -12% and 1.37.
For the compound `COc1ccc(N2CCN(C(=O)[C@H]3CCCN(c4ncnc5onc(C)c45)C3)CC2)cc1`, the “% Inhibition” value was -10% and the Z score amounted to 1.32.
On to `O=C(NCCC[C@H]1C=NNC1=O)c1c(O)cccc1OC(F)(F)F`, for which the “% Inhibition” value was -5% and the Z score is given as 0.53.
For the compound `O=S(=O)(c1cccnc1)N(CCOc1ccccc1)C[C@H]1CCCO1`, the “% Inhibition” value is given as -5% and the Z score was found to be 0.54.
The corresponding values for `Cc1c(CCNC(=O)c2ccc(CN(C)C)o2)c2cccc3c2n1CCC3` are 9% and -1.21.
As to `COC(=O)c1ccc(NC(=O)c2c3c(nn2-c2ccccc2)CCCC3)cc1`, the “% Inhibition” value was -12% and the Z score is listed as 1.59.
With `CCC(C)C(=O)Nc1c(C(=O)OC)n(CC2CCCO2)c2ncc(NC(C)C(C)(C)O)cc12` (stereo not drawn), the “% Inhibition” value is given as -3% and the Z score amounted to 0.31.
Take `O=C(CN[C@@H](C1CCOCC1)C(F)(F)F)N1CCOCC1`: the “% Inhibition” value was -6% and the Z score is 0.54.
As to `COC(=O)CCc1nnc(NCc2ccc3c(c2)OCCO3)s1`, the “% Inhibition” value is -7% and the Z score was determined as 0.84.
The like results for `Cc1n[nH]c2nc3c(c(-c4ccc(Cl)cc4)c12)c(=O)n(C)c(=O)n3C` were, in that order, 4% and -0.57.
The corresponding values for `Cc1nn(-c2nc(CC(=O)Nc3ccccc3)cs2)c(C)c1Cl` are -9% and 1.71.
The like results for `O=C(CNc1cccnc1-c1ccco1)Nc1ccc(F)cc1` were, in that order, -35% and 4.95.
In the case of `Cc1[nH]c2c(-c3nc(-c4ncccn4)no3)cccc2c1C`, the “% Inhibition” value is -3% and the Z score is recorded as 0.58.
The like results for `CC(C)CN(CC(N)=O)Cc1nccn1C` were, in that order, -1% and 0.23.
Take `O=C1N[C@@H](c2csc(COc3ccccc3)n2)Nc2ccccc21`: the “% Inhibition” value is -4% and the Z score worked out at 0.64.
The like results for `CCCc1ccc(OCCNC(=O)c2nn(C)cc2Cl)cc1` were, in that order, -18% and 2.3.
The corresponding values for `CC1CN(CC(CNC(=O)OC(C)(C)C)Cc2ccncc2)CCO1` (stereo not drawn) are 16% and -2.12.
In the case of `Clc1ccc2c(c1)sc[n+]2Cc1ccccc1`, the “% Inhibition” value is -10% and the Z score is on record as 1.97.
`C=CCOc1ccc(-c2nc(=O)c(CCC(=O)N3CCCC3)n[nH]2)cc1OC`: the “% Inhibition” value is on record as 20% and the Z score was -2.45.
The like results for `NC(=O)CS(=O)(=O)c1cc(F)ccc1F` were, in that order, 4% and -0.65.
Turning to `CCOc1ccc(S(=O)(=O)N2CCC[C@@H]2CS(=O)(=O)c2ccccc2)cc1F`, the “% Inhibition” value is recorded as -1% and the Z score stood at 0.14.
With `OCc1ccc(-c2cnn([C@@H]3CCCCO3)c2)cc1`, the “% Inhibition” value is recorded as -12% and the Z score was 1.08.
As for `CC(C)(C)c1cc(NC(=O)COc2nnc(-c3ccccc3)o2)on1`, the “% Inhibition” value is -9% and the Z score is recorded as 1.04.
For the compound `Cc1cccc(-n2cc(-c3ccccc3)nc2NC(=O)CN(C(=O)CC(C)C)C2CC2)c1`, the “% Inhibition” value was found to be 7% and the Z score is reported as -0.92.
For `O=C1[C@@H]2C(c3cccnc3)=NO[C@@H]2C(=O)N1c1cc(Cl)cc(Cl)c1`, the “% Inhibition” value was -1% and the Z score came to 0.12.
The corresponding values for `Cc1c(C(c2c(C)n(C)n(-c3ccccc3)c2=O)c2c[nH]c3ccccc23)c(=O)n(-c2ccccc2)n1C` are -6% and 0.93.
For the compound `C[C@@H](c1ccc2c(c1)OCCO2)N(C)C(=O)CN1C(=O)OC(C)(C)C1=O`, the “% Inhibition” value is given as -9% and the Z score is 1.8.
Turning to `Cc1nc(CC[C@H]2CCN(C(=O)c3cccnc3)C2)no1`, the “% Inhibition” value was -3% and the Z score is listed as 0.45.
The like results for `COc1ccccc1NC(=O)[C@@H]1CCN(S(C)(=O)=O)c2ccccc2O1` were, in that order, -7% and 1.08.
The corresponding values for `C[C@H](NC(=O)Nc1ccncc1F)c1ccc(OC(F)F)cc1` are -1% and 0.09.
The corresponding values for `CCOCCCNC/C=C/c1ccccc1` are 36% and -4.62.
Regarding `COC(=O)c1cc(S(=O)(=O)Nc2ncncc2C(C)C)ccc1C`, the “% Inhibition” value is on record as -8% and the Z score was determined as 0.91.
The corresponding values for `CCc1ccc(CNC(=O)C2CCN(c3cc(=O)n(C)c(=O)n3C)CC2)cc1` are -4% and 0.65.
The corresponding values for `Cc1nc([C@@H]2CCCCCN2S(=O)(=O)c2cnn(C)c2)no1` are -5% and 0.66.
As to `CC(C)CN1CCN([C@H]2CCOC3(CCN(C(=O)c4cccc5[nH]ccc45)CC3)C2)CC1`, the “% Inhibition” value was -22% and the Z score is given as 2.4.
The corresponding values for `Cc1noc(C)c1S(=O)(=O)N1C[C@H](C)OCC1(C)C` are -2% and 0.22.
The corresponding values for `CN(C)CCCn1ccnc1C1CCN(c2ccc3c(n2)CCCC3)CC1` are 12% and -2.29.
For the compound `O=C(CCc1nc(N2CCCCC2)c2c(-c3ccc(F)cc3)noc2n1)N[C@H]1CCS(=O)(=O)C1`, the “% Inhibition” value is -1% and the Z score is given as 0.21.
In the case of `CCNC(=O)[C@H]1CCN(C(=O)c2ccc3nc(-c4ccccc4)cn3c2)C1`, the “% Inhibition” value is recorded as -18% and the Z score amounted to 1.93.
The corresponding values for `COc1ccc(CNCCc2nnc3ccccn23)cc1` are 9% and -1.39.
The corresponding values for `COc1ccc(S(=O)(=O)N2CCOCC2)cc1NC(=O)c1cc(-c2ccc(C)o2)nc2ccccc12` are -16% and 2.59.
`CNC(=O)COc1cccc2c1CCC2=O`: the “% Inhibition” value stood at 24% and the Z score is recorded as -3.31.
Turning to `CN(C)C(=O)N1CCN(CCOCc2ccccc2)C[C@H](O)C1`, the “% Inhibition” value was -13% and the Z score is recorded as 1.27.
The corresponding values for `C[C@H](NC(=O)N1CC2(CCCO2)C1)c1nccn1C` are 3% and -0.28.
The corresponding values for `COc1ccccc1-c1ccnc(-n2ncc(C(=O)NCCN(C)C)c2-c2ccco2)n1` are -3% and 0.59.
For the compound `CC(=O)NCCNC(=O)c1cc(NCc2cccc3c2OCO3)cc(S(=O)(=O)N(C)C)c1`, the “% Inhibition” value is -13% and the Z score is on record as 1.53.
The like results for `CCCn1ccnc1CN(C)Cc1cccc(-c2nnn[nH]2)c1` were, in that order, -22% and 2.32.
Turning to `CO[C@@H](CNS(=O)(=O)c1cccnc1)C(C)(C)C`, the “% Inhibition” value was -8% and the Z score is listed as 0.83.
With `COc1cccnc1NC(=O)Cc1csc(-c2ccc(C)o2)n1`, the “% Inhibition” value was 9% and the Z score is -1.11.
The like results for `O=C1CN(C(=O)CCC(=O)Nc2ccc3c(c2)CCC3)CCN1` were, in that order, -4% and 0.79.
The like results for `Cc1nc(CNC(=O)Nc2cccc(F)c2)n[nH]1` were, in that order, -5% and 0.76.
Take `CS(=O)(=O)N1CCN(CCC(=O)NC2CCCCC2)CC1`: the “% Inhibition” value is listed as -4% and the Z score is given as 0.47.
The like results for `CC(C)c1nc([C@H]2CCCN(S(=O)(=O)c3cnc4n3CCC4)C2)no1` were, in that order, 11% and -1.27.
`COc1cccc(C2=NN(C(=O)CN(C)C(=O)C3CCCC3)[C@H](c3ccccc3)C2)c1`: the “% Inhibition” value was -9% and the Z score was 1.41.
On to `Cc1cnc(CN2CCC(Oc3ncc(C)cn3)CC2)nc1`, for which the “% Inhibition” value was -16% and the Z score is 2.23.
`O=C(c1ccc2c(c1)C(=O)N(Cc1ccccc1)C2=O)N1CCCCC1`: the “% Inhibition” value was -7% and the Z score was 0.71.
The corresponding values for `CN(C)C(=O)Cc1ccc(NS(=O)(=O)C2CC2)cc1` are -6% and 0.94.
On to `CN(C)c1cccc(C(=O)N2CCC(c3nc4ccccc4o3)CC2)c1`, for which the “% Inhibition” value was -1% and the Z score is recorded as 0.18.
The like results for `Cn1cc(S(=O)(=O)N(Cc2ccccn2)C2CC2)cn1` were, in that order, -3% and 0.53.
Regarding `CC(O)(CNS(=O)(=O)CC1CCCC(F)(F)C1)c1ccccc1` (stereo not drawn), the “% Inhibition” value was -7% and the Z score was found to be 0.96.
The corresponding values for `O=C1CC2(CCOCC2)N(Cc2cnc(-c3ccccc3)o2)CCN1` are -6% and 0.8.
Regarding `OC(COC1CCOCC1)CN1CCCC1c1ccc(Br)cn1` (stereo not drawn), the “% Inhibition” value is recorded as 4% and the Z score was -0.4.
The corresponding values for `CCOC1CC2(CCN(Cc3ccc(OC(F)F)c(Cl)c3)C2)C1` (stereo not drawn) are 1% and -0.13.
`Cc1nc(N2CCOCC2)sc1CN[C@@H](C)Cn1cccn1`: the “% Inhibition” value is -8% and the Z score came to 0.81.
In the case of `Cc1ccc(-c2cc(F)c(F)c(F)c2)nn1`, the “% Inhibition” value is -6% and the Z score was 0.87.
`Cc1cc(C(=O)NCCc2ccco2)nc(C)n1`: the “% Inhibition” value is given as -8% and the Z score is given as 1.45.
`Cc1ccc(NC(=O)c2[nH]ccc2C)cc1S(=O)(=O)NC(C)(C)C`: the “% Inhibition” value is listed as -3% and the Z score is 0.34.
The corresponding values for `CCn1nc(CO)c2c1CCN(Cc1ccc(OC)cc1F)C2` are -1% and 0.13.

The term % Inhibition denotes the drop in the measured response relative to a control, in per cent.
